From PubChem BioAssay AID445 (National Center for Advancing Translational Sciences (NCATS), 2006)
Among all 110,000 compounds or so, about 40 (0.04%) were called active. The shares of active, inactive and inconclusive entries below differ from those in the screen. Calls follow the shape of the dose curve; as a rule, active = well fitted curve in the direction sought with a large enough effect in the signal ratio (not every such curve was filed as active); inconclusive = small, poorly fitted or top-dose-only effect, or a change in a side signal; inactive = flat fitted curve, though single readings scatter; the % refers to the signal ratio. Potencies beside an inconclusive call are fits to weak or partial responses and may not hold up.

assay: IkB Signaling; conditions: ABC-DLBCL IkBa-CBG/CBR dual luciferase ratio (green luciferase fused to IkBa over red control in OCI-Ly3 lymphoma cells), 4 h; IkBa stabilization activation: at 57.1 µM (top of the series), scaled: untreated 0%, proteasome inhibitor 100% unless noted;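 as to IkBa stabilization activation: 0% = basal untreated cells and 100% = reference inhibitor full response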
In short: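 Curves were fitted separately to fusion (green), unfused (red) and ratio luminescence, then classed by r2, magnitude and activity. Cells: OCI-Ly3, 4 h compound plus doxycycline at 37C; 10 uM MG-132 defined full response.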
Potency is read from the fitted curve at half-maximal effect.

Row | Structure (SMILES) | IkBa stabilization activation | Potency
1 | CCNc1nc(N)nc(Oc2ccc(OCC(=O)OC)nn2)n1 | inactive: 0.466% | –
2 | CCN(CC)CCNc1ncnc2c1cnn2-c1cc(Cl)ccc1C | inconclusive: -2.28% [signal inhibitor] | –
3 | COc1ccc(-n2nnnc2-c2cccc(OC)c2)cc1 | inconclusive: 4.93% [signal activator] | –
4 | Cc1ccc(C(=O)Nc2nc3nc(C)cc(=O)n3[nH]2)cc1 | inconclusive: 6.56% [signal inhibitor] | –
5 | COc1cccc(CNC(=O)CSc2nc(=O)[nH]c3c2CCC3)c1 | inconclusive: 3.43% [signal inhibitor] | –
6 | CCCN(C(=O)C(=O)Nc1ccc2nc3n(c(=O)c2c1)CCCCC3)c1ccc(OCC)cc1 | inconclusive: -0.788% [signal inhibitor] | –
7 | CCNc1ncc2nc(-c3cn(C)c4ccccc34)c(=O)n(C[C@H]3CCCO3)c2n1 | inactive: -2.65% [at 11.4 µM, scaled: untreated 0%, proteasome inhibitor 100%] | –
8 | C=CCn1c(SCCC#N)nnc1-c1ccncc1 | inactive: 0.691% | –
9 | CCS(=O)(=O)c1ccc(O)c(NC(=O)c2cc(OC)c(OC)c(OC)c2)c1 | inconclusive: 8.32% [signal inhibitor] | –
10 | CCOc1ccccc1C(=O)Nc1cccc2ccc(C)nc12 | inconclusive: 1.3% [signal inhibitor] | –
11 | COC(=O)c1ccccc1NC(=O)CN1CCC(n2nnc3cc(C)ccc32)CC1 | inconclusive: 10.3% [signal inhibitor] | –
12 | CCN1CCN(c2csc3ccc(F)cc3c2=O)CC1 | inconclusive: 7.02% [signal inhibitor] | –
13 | O=C1OC2(c3cc(Br)c(O)c(Br)c3Oc3c2cc(Br)c(O)c3Br)c2c(Cl)c(Cl)c(Cl)c(Cl)c21 | inactive: -9.4% | –
14 | CCn1c(/C(C#N)=C(\O)CCc2ccccc2)nc2ccccc21 | inconclusive: -4.96% [signal inhibitor] | –
15 | O=C(Nc1nc(-c2cccs2)c(-c2ccccc2)s1)c1ccco1 | inconclusive: 14.4% [signal inhibitor] | –
16 | Cc1cccc(N(CC(N)=O)C2SC(=O)N(c3ccccc3)C2=O)c1 (centres undefined) | inconclusive: 3.75% [signal inhibitor] | –
17 | Cc1cccn2c(=O)cc(CSc3nnc(NC(=O)COc4ccc(F)cc4)s3)nc12 | inconclusive: -0.708% [signal inhibitor] | –
18 | O=c1c2ccccc2cnn1-c1nc2ccccc2s1 | – | inconclusive: 0.631 µM [signal inhibitor, full curve]
19 | O=C(NCc1ccc2c(c1)OCO2)c1ccc(CS(=O)(=O)c2ccc(Br)cc2)o1 | inconclusive: 5.38% [signal inhibitor] | –
20 | O=C(Cc1ccccc1)N(Cc1cccnc1)c1nc2ccc(Cl)cc2s1 | inconclusive: -1.83% [signal inhibitor] | –
21 | CCn1c(COc2ccccc2C)nnc1SCC(=O)CC(=O)Nc1ccccc1 | inconclusive: 7.07% [signal inhibitor] | –
22 | N#Cc1ccccc1-c1ccc2ncnc(N3CCNCC3)c2c1 | inactive: -1.56% [at 11.4 µM, scaled: untreated 0%, proteasome inhibitor 100%] | –
23 | Cc1ccc(CC2CC(=O)N(CCc3ccc4c(c3)OCO4)C2=O)cc1 (centres undefined) | inconclusive: 1.71% [signal inhibitor] | –

Row | Structure (SMILES) | IkBa stabilization activation | Potency
24 | CCOC(=O)c1c(C)oc2ncnc(N3CCN(c4ccc(C)cc4C)CC3)c12 | inconclusive: 0.208% [signal inhibitor] | –
25 | Cn1c(=O)c2c(nc(Oc3ccc(C#N)cc3)n2Cc2ccc(Cl)cc2Cl)n(C)c1=O | inconclusive: -4.52% [signal inhibitor] | –
26 | COc1ccccc1N1CCN(C(=O)c2c(-c3c(Cl)cccc3Cl)noc2C)CC1 | inconclusive: 3.32% [signal inhibitor] | –
27 | CCOC(=O)c1ccccc1NC(=O)Cn1c(=O)n(CCC(=O)NCc2ccccc2OC)c(=O)c2ccccc21 | – | inconclusive: 25.1 µM [signal inhibitor, partial curve]
28 | Cc1ccc(CNC(=O)c2oc3ccc(S(=O)(=O)N4CCC(C)CC4)cc3c2C)cc1 | inconclusive: 0.674% [signal inhibitor] | –
29 | CCCCN1C(=O)CN(C2CCCCCC2)C(=O)C1c1ccc(OC(C)C)c(OC)c1 (centres undefined) | inactive: 0.558% | –
30 | COc1ccccc1CNC(=O)c1ccc2c(c1)N(Cc1cc(C)ccc1C)C(=O)c1ccccc1S2 | inactive: 1.27% | –
31 | CC(C)(O)c1cc(=O)sc2nc3ccccc3n12 | inactive: -1.15% | –
32 | COCCCNC(=O)c1c(N)n(-c2ccc3c(c2)OCO3)c2nc3ccccc3nc12 | inactive: -5.96% | –
33 | Cc1cccc(N2CCN(C(=O)c3cc4n(n3)C(C(F)(F)F)CC(c3ccco3)N4)CC2)c1C (centres undefined) | inconclusive: 3.36% [signal inhibitor] | –
34 | Cc1ccccc1NC(=O)CSc1nc2ccc(NC(=O)c3ccccc3)cc2s1 | inconclusive: 2.54% [signal inhibitor] | –
35 | Cc1nc(NC(=O)c2ccco2)sc1C(=O)Nc1ccc(Br)cc1 | inconclusive: -0.157% [signal inhibitor] | –
36 | Cn1cc(C(=O)NC2CCCCCC2)c(=O)c2cc(S(=O)(=O)N3CCCC3)ccc21 | inactive: -0.486% | –
37 | CCn1c(SCC(=O)Nc2nc3c(s2)CCCC3)nnc1-c1ccccc1 | inactive: 3.58% | –
38 | CCCN(CCC)C(=O)SCC | inactive: 2.29% | –
39 | Cc1ccccc1CN1C(=O)C(O)(CC(=O)c2ccccc2)c2cc(Cl)ccc21 (centres undefined) | inconclusive: 3.45% [signal inhibitor] | –
40 | Cc1oc(-c2ccc(C(=O)NCc3ccc(F)cc3)cc2)nc1CS(=O)c1ccccc1 (centres undefined) | inconclusive: 0.465% [signal inhibitor] | –
41 | COc1ccc(CNC(=O)Nc2ccc(OC)cc2)cc1 | inactive: 3.33% | –
42 | O=C(Nc1cccc(-c2nc3ncccc3o2)c1)c1cc2ccccc2o1 | – | inconclusive: 12.6 µM [signal inhibitor, partial curve]
43 | Cc1nc(N)c(C#N)c(-c2cccnc2)c1C | inactive: -2.07% | –
44 | C=CCn1c(COc2ccc(CC)cc2)nnc1SC/C(O)=C(\C#N)c1nc2ccccc2[nH]1 | inconclusive: 18.9% [signal inhibitor] | –
45 | Cc1cc(C)cc(C(=O)Nc2c(C(=O)Nc3ccccc3F)oc3ccccc23)c1 | inactive: -0.816% | –
46 | COc1ccccc1OCCn1c(C(C)Oc2ccccc2)nc2ccccc21 (centres undefined) | inconclusive: 1.52% [signal inhibitor] | –

Row | Structure (SMILES) | IkBa stabilization activation | Potency
47 | COc1ccc(-c2cc(C(F)(F)F)n3nc(C(=O)O)c(Cl)c3n2)cc1OC | inactive: -2.77% | –
48 | COc1ccc2[nH]c3c(=O)n(CCCCC(=O)NCCN4CCCC4)c(=S)[nH]c3c2c1 | – | inconclusive: 25.1 µM [signal inhibitor, partial curve]
49 | Cc1ccc(-n2ccnc(NCCc3ccc(S(N)(=O)=O)cc3)c2=O)c(C)c1 | inconclusive: 2.26% [signal inhibitor] | –
50 | Cc1ccc(N2CCN(S(=O)(=O)c3ccc4oc(=O)c5ncn(C)c5c4c3)CC2)c(C)c1 | inconclusive: -1.69% [signal inhibitor] | –
51 | CCOCCCNC(=O)Nc1cc(C(=O)NCc2ccc(C(C)C)cc2)ccc1N1CCCC1 | inconclusive: 5.13% [signal inhibitor] | –
52 | COc1cc2c(cc1OC)C(COc1ccc(F)cc1)N(C(=O)c1ccccc1F)CC2 (centres undefined) | inconclusive: 0.031% [signal inhibitor] | –
53 | Cc1cccc(-c2nnc(SCC(=O)N3CCCc4ccccc43)o2)c1 | inconclusive: 8.14% [signal inhibitor] | –
54 | CC(=O)c1ccc(C(=O)N(Cc2cccnc2)c2nc3c(Cl)cccc3s2)cc1 | inconclusive: 4.41% [signal inhibitor] | –
55 | COC(=O)C(C)NC(=O)N1CCN(c2nnc(C)c3c(C)n(-c4ccc(Cl)cc4)nc23)CC1 (centres undefined) | inconclusive: -0.492% [signal inhibitor] | –
56 | Cc1ccc(S(=O)(=O)c2nnn3c2nc(NCc2cccs2)c2sccc23)cc1C | inconclusive: 3.16% [signal inhibitor] | –
57 | Cc1cccc(CS(=O)(=O)c2ncc(Cl)c(C(=O)Nc3nc4ccc(F)cc4s3)n2)c1 | inconclusive: -1.73% [signal inhibitor] | –
58 | O=c1c2[nH]c3ccc(Br)cc3c2ncn1CCCn1ccnc1 | inactive: -0.589% | –
59 | Cn1nnnc1SCCNCc1ccccc1OCc1ccc(Cl)cc1Cl | inconclusive: -0.39% [signal inhibitor] | –
60 | CC(C)N(C(=O)c1cc2c(Cl)nc3ccccc3c2s1)C1CCCCC1 | inconclusive: -0.745% [signal inhibitor] | –
61 | COc1cccc2sc(N3CCN(C(=O)CS(=O)(=O)c4ccc(Cl)cc4)CC3)nc12 | inconclusive: -0.774% [signal inhibitor] | –
62 | COc1cccc(CNc2ncc(-c3ccc(Br)cc3)n2C)c1 | inconclusive: 3.96% [signal inhibitor] | –
63 | O=C(NCCCn1ccnc1)c1cc2c(s1)CCCCC2 | – | inconclusive: 12.6 µM [signal inhibitor, partial curve]
64 | O=C(NCCc1ccccc1)c1c(O)c2cccc3c2n(c1=O)CC3 | – | inconclusive: 25.1 µM [signal inhibitor, partial curve]
65 | COc1ccccc1-c1cc(C(F)(F)F)nc(NCc2ccco2)n1 | inconclusive: 9.41% [signal inhibitor] | –
66 | Nc1c(-c2nc(-c3ccccc3)cs2)c2ccccn2c1C(=O)c1ccc2c(c1)OCO2 | inconclusive: 5.09% [signal inhibitor] | –
67 | CCN1C(C(=O)c2ccccc2)=C(OC(=O)COc2ccccc2)c2ccccc2S1(=O)=O | inconclusive: 1.13% [signal inhibitor] | –
68 | COc1ccc(CN2CCN(S(=O)(=O)c3ccc(NC(C)=O)cc3)CC2)cc1OC | inactive: 3.54% | –
69 | Cc1cc(C)c(S(=O)(=O)N2CCN(Cc3nc4ccc(C)cc4o3)CC2)c(C)c1 | inconclusive: -1.23% [signal inhibitor] | –
